Results taken from PubChem BioAssay AID2675 (National Center for Advancing Translational Sciences (NCATS), 2010).
Among all 280,000 compounds or so, about 100 (0.036%) were called active. Inconclusive means that the source gave no clear call. Such entries were picked first, then a sample of the others. Calls follow the shape of the dose curve; as a rule, active = well fitted inhibition curve with a large enough effect in the signal ratio, with a control signal flat (not every such curve was filed as active); inconclusive = small, poorly fitted or top-dose-only effect, or effect the other way, or a change in a side signal; inactive = no such curve, though single readings can be large or run the other way; the % refers to the signal ratio. Potencies of inconclusive entries are doubtful fits and often do not repeat. A note “side channel” means that the fit belongs to a control or component signal, not to the main read-out.

The molecules below were run against Muscleblind-like protein 1 (Homo sapiens) (UniProt Q9NR56) (assay: qHTS Assay for Inhibitors of MBNL1-poly(CUG) RNA binding). Conditions: TR-FRET MBNL1-His/biotin-(CUG)12 binding, 665/545 ratio; series mostly up to 57.5 µM.
Sequence of UniProt Q9NR56 (Q9NR56 whole entry, looked up): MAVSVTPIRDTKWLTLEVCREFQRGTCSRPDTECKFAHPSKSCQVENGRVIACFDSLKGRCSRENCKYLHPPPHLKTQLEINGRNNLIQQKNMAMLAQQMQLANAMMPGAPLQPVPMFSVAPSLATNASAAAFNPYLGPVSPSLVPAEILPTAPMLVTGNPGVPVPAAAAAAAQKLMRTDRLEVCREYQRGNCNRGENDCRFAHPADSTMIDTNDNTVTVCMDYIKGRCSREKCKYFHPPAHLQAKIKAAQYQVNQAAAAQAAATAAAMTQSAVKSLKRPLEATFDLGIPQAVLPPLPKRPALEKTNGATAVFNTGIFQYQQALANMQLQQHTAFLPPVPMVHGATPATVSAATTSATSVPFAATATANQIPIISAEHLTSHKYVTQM
Procedure, shortened: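 MBNL1-His + Biotin-(CUG)12, cpd titration 92 nM–58 uM; Tb anti-His Ab 0.055 ng/ul, SA-XL665 5 nM (final); 60 min RT; ratiometric 665/545 nm, Ex 340 nm; normalized to buffer and full-complex controls.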
Potency is read from the fitted curve at half-maximal effect; tags tell the direction and shape of the fitted curve or compound fluorescence and quenching.

**Q.** How did the Potency turn out when `CC(NC(=S)NC1CCC(C(C)(C)C)CC1)c1ccccc1` (centres undefined) was run?
**A.** inactive

**Q.** How did the Potency turn out when `CCOc1ccc(-n2c(N)c(C(=O)N3CCN(C)CC3)sc2=S)cc1` was run?
**A.** inconclusive: 12.6 µM [quencher, side channel, partial curve]

**Q.** `COc1cc(CN2CCCCCC2)c([N+](=O)[O-])cc1OC` was tested. Which Potency did it give?
**A.** inconclusive: 20 µM [quencher, side channel, partial curve]

**Q.** For `COc1ccc(NC(=S)N2c3ccccc3CC2C)cc1OC` (centres undefined), which Potency is on record?
**A.** inconclusive: 39.8 µM [quencher, side channel, single point]

**Q.** `COc1cc(C2C(C#N)=C(N)Oc3c2oc(CO)cc3=O)ccc1OC(C)C` (centres undefined) was tested. Which Potency did it give?
**A.** inconclusive: 17.8 µM [quencher, side channel, partial curve]

**Q.** How did the Potency turn out when `Cc1ccc(S(=O)(=O)c2cc3c(=O)n4ccccc4nc3n(Cc3ccco3)c2=N)cc1C` was run?
**A.** inactive

**Q.** Which Potency does the source give for `COc1ccc(S(=O)(=O)N2CCN(C(=O)COc3ccc4c(C)cc(=O)oc4c3)CC2)cc1` here?
**A.** inactive

**Q.** `CC[n+]1cccc(-c2nc3ccccc3s2)c1` was tested. Which Potency did it give?
**A.** inconclusive: 15.8 µM [quencher, partial curve]

**Q.** `CCOC(=O)Cc1csc(NC(=O)c2cccc([N+](=O)[O-])c2)n1` was tested. Which Potency did it give?
**A.** inconclusive: 7.94 µM [quencher, side channel, partial curve]

**Q.** With `O=C(NCc1ccccc1Cl)c1cnc2ccccc2n1` as the molecule, how does the Potency read?
**A.** inconclusive: 17.8 µM [quencher, side channel, partial curve]

**Q.** `CC(C)(C)c1cc[n+](C2=C([O-])c3ccccc3C(=O)/C2=N\S(=O)(=O)c2ccccc2)cc1` was tested. Which Potency did it give?
**A.** inconclusive: 15.8 µM [quencher, side channel, partial curve]

**Q.** For `Cc1cc(C(=O)N/N=C/c2ccc(-c3ccc([N+](=O)[O-])cc3C)o2)n[nH]1`, which Potency is on record?
**A.** inconclusive: 7.94 µM [quencher, side channel, partial curve]

**Q.** `c1coc(CNCc2cccs2)c1` was tested. Which Potency did it give?
**A.** inconclusive: 39.8 µM [inhibitor, single point]

**Q.** With `Nc1nc2ccc([N+](=O)[O-])c(N)c2s1` as the molecule, how does the Potency read?
**A.** inconclusive: 10 µM [quencher, partial curve]

**Q.** How did the Potency turn out when `N#Cc1ccccc1/C=N/Nc1nc(-c2ccccc2)c2cc(Cl)ccc2n1` was run?
**A.** inactive

**Q.** How did the Potency turn out when `O=C(Cn1ncc(Cl)c(Cl)c1=O)NCC1CCCCC1` was run?
**A.** inconclusive: 3.98 µM [quencher, side channel, full curve]

**Q.** For `O=[N+]([O-])c1ccccc1-c1ccc(CN2CCN(c3ccccc3)CC2)o1`, which Potency is on record?
**A.** inactive

**Q.** `CCn1c2ccccc2c2nnc(SCC(N)=O)nc21` was tested. Which Potency did it give?
**A.** inconclusive: 25.1 µM [quencher, single point]

**Q.** How did the Potency turn out when `COc1ccc(N=Nc2nc3cc(Br)c(Br)cc3n2C)c(OC)c1` was run?
**A.** inconclusive: 20 µM [quencher, side channel, single point]

**Q.** With `COc1ccc(N2Cc3ccccc3C2=NC(=O)c2cccc([N+](=O)[O-])c2)cc1` as the molecule, how does the Potency read?
**A.** inconclusive: 20 µM [quencher, side channel, partial curve]

**Q.** With `Cc1nn(CCC(=O)NCc2ccc(N(C)C)cc2)c(=O)c2nn(-c3ccccc3)c(C)c12` as the molecule, how does the Potency read?
**A.** inactive

**Q.** With `CCOn1c(=O)c(-c2ccc(OC)cc2)[n+]([O-])c2ccccc21` as the molecule, how does the Potency read?
**A.** inconclusive: 15.8 µM [quencher, side channel, partial curve]

**Q.** With `NC1=NC(=Nc2ccc(Br)cc2)c2ccccc21` as the molecule, how does the Potency read?
**A.** inconclusive: 14.1 µM [quencher, side channel, partial curve]

**Q.** `Cc1occc1C(=O)Nc1cccc(C(F)(F)F)c1` was tested. Which Potency did it give?
**A.** inactive

**Q.** With `O=C(COc1ccccc1)NNc1c2ccccc2nc2ccccc12` as the molecule, how does the Potency read?
**A.** inconclusive: 14.1 µM [quencher, side channel, partial curve]

**Q.** Which Potency does the source give for `O=C(Nc1ccc(N2CCCC2)cc1)c1cccc(F)c1` here?
**A.** inactive

**Q.** `COCc1nnc(NC(=O)c2ccc(S(=O)(=O)N(C)c3ccccc3)cc2)o1` was tested. Which Potency did it give?
**A.** inconclusive: 39.8 µM [quencher, side channel, single point]

**Q.** `Cc1cc(C(=O)Nn2cnnc2)ccc1[N+](=O)[O-]` was tested. Which Potency did it give?
**A.** inconclusive: 35.5 µM [quencher, side channel, single point]

**Q.** For `O=C(Nc1c(-c2ccccc2)nc2ncccn12)c1cc2ccccc2oc1=O`, which Potency is on record?
**A.** inconclusive: 10 µM [quencher, side channel, partial curve]

**Q.** For `Cc1nn(C)c(Cl)c1CN1CCCC(CO)(Cc2cccc(Cl)c2)C1` (centres undefined), which Potency is on record?
**A.** inconclusive: 79.4 µM [inhibitor, single point]

**Q.** For `O=C1C(=O)N(Cc2cccnc2)C(c2cccc([N+](=O)[O-])c2)/C1=C(/O)c1ccc2c(c1)OCO2` (centres undefined), which Potency is on record?
**A.** inconclusive: 25.1 µM [quencher, side channel, partial curve]

**Q.** With `C#CCSc1nnc(-c2ccc([N+](=O)[O-])cc2)o1` as the molecule, how does the Potency read?
**A.** inconclusive: 3.55 µM [quencher, side channel, full curve]

**Q.** `Cc1cc(C)c2[nH]c(=O)c(CN(Cc3nnnn3C3CCCC3)C3CCCCC3)cc2c1` was tested. Which Potency did it give?
**A.** inactive

**Q.** For `C=CCn1c(SCc2c(Cl)cccc2Cl)nnc1-c1cccnc1`, which Potency is on record?
**A.** inactive

**Q.** How did the Potency turn out when `Cc1ccc2c(=O)cc(C(=O)Nc3ccc(S(=O)(=O)Nc4onc(C)c4C)cc3)oc2c1` was run?
**A.** inconclusive: 15.8 µM [quencher, side channel, partial curve]

**Q.** With `O=C(/C=C/c1cccs1)c1ccc([N+](=O)[O-])cc1` as the molecule, how does the Potency read?
**A.** inconclusive: 4.47 µM [quencher, side channel, partial curve]

**Q.** With `CC(NC(=O)c1ccc(N2CCCC2)c([N+](=O)[O-])c1)c1ccc(S(N)(=O)=O)cc1` (centres undefined) as the molecule, how does the Potency read?
**A.** inconclusive: 22.4 µM [quencher, side channel, partial curve]

**Q.** How did the Potency turn out when `CS(=O)(=O)N1CCN(c2ccc(NC(=O)c3ccc([N+](=O)[O-])o3)cc2)CC1` was run?
**A.** inconclusive: 0.794 µM [quencher, side channel, full curve]

**Q.** `Cc1ccc(CSC2=NCCN2C(=O)c2ccc([N+](=O)[O-])cc2)cc1` was tested. Which Potency did it give?
**A.** inconclusive: 14.1 µM [quencher, side channel, partial curve]
